This note sets out measurements from PubChem BioAssay AID1745853 (National Center for Advancing Translational Sciences (NCATS), 2022).

Each structure is given as a SMILES string. Where “and” joins values, the source holds several entries; their conditions need not be identical. Equal values may be shown once. The list shows a part of the results. Shown are side measurements of this screen, not its main read-out; they come without a call.

Holding throughout (assay): Primary Screen for Target Class Profiling of Small Molecule Inhibitors of Methyltransferases
The target in assay [1] is Glycine N-methyltransferase (Homo sapiens) (UniProt Q14749). Conditions: purified enzyme, MTase-Glo SAH luminescence; measured here: GNMT inhibition; at 40 µM; stronger effect = lower value. In a few lines: (§1)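 Each enzyme was reacted with SAM and its substrate, with compounds tested once at 40 uM; SAH formed was read by MTase-Glo luminescence.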
The target of assay [2] is Guanidinoacetate N-methyltransferase (Homo sapiens) (UniProt Q14353). Conditions: purified enzyme, MTase-Glo SAH luminescence; measured here: GAMT inhibition; at 40 µM; stronger effect = lower value. In a few lines:
as §1

Assay [3] concerns the target Histamine N-methyltransferase (Homo sapiens) (UniProt P50135). The note with it: purified enzyme, MTase-Glo SAH luminescence; measured here: HNMT inhibition; at 40 µM; stronger effect = lower value. In a few lines: as §1
Assay [4] has as its target Nicotinamide N-methyltransferase (Homo sapiens) (UniProt P40261). Conditions: purified enzyme, MTase-Glo SAH luminescence; measured here: NNMT inhibition; at 40 µM; stronger effect = lower value. In a few lines: as §1
Assay [5] has as its target Phenylethanolamine N-methyltransferase (Homo sapiens) (UniProt P11086). The note with it: purified enzyme, MTase-Glo SAH luminescence; measured here: PNMT inhibition; at 40 µM; stronger effect = lower value. In a few lines:
as §1
On the % scale 0 is the no-effect control and ±100 the full control effect.

As to `CCOc1ccccc1NC(=O)Nc1cccc(-c2ccc(N3CCCC3)nn2)c1`, the activity change, negative = inhibition in assay [1] is -10.3%; in assay [2], -11.7%; in assay [3] it was -18.1%; in assay [4], -21.5%; in assay [5], -15.9%.

With `N[C@H]1CO[C@H]2[C@@H]1OC[C@@H]2n1cc(-c2ccccn2)nn1`, the activity change, negative = inhibition in assay [1] was -37.7%; in assay [2], -26.8%; in assay [3], 1.93%; in assay [4] it was -9.79%; in assay [5], -35.4%.

For `COc1ccc(/C=C/C(=O)O[C@@H]2[C@@H](O)[C@H](C)O[C@@H](OC3C4C=COC(O[C@@H]5O[C@H](CO)[C@@H](O)[C@H](O)[C@H]5O)C4C4(CO)OC34)[C@@H]2O)cc1OC` (stereo not given in full), the activity change, negative = inhibition in assay [1] was 1.99%; in assay [2], 8.34%; in assay [3], 6.44%; in assay [4] it was -4.9%; in assay [5], 6.49%.

As to `CCc1cc2c(cc3n2CC(C)(C(=O)NC2CCCCC2)N(c2ccc(OC)c(OC)c2)C3=O)s1` (stereo not given), the activity change, negative = inhibition in assay [1] was 1.7%; in assay [2], 4.47%; in assay [3], -1.21%; in assay [4], -0.476%; in assay [5] it was -3.3%.

As to `CCOc1ccc(CN2C(=O)c3nc4ccccc4n3CC2(C)C(=O)NC2CCCCC2)cc1` (stereo not given), the activity change, negative = inhibition in assay [1] is -4.39%; in assay [2], 3.01%; in assay [3] it was -1.13%; in assay [4] it was 2.09%; in assay [5], -5.08%.

For `O=C(CSc1nnc2n(Cc3ccc(F)cc3)c(=O)c3ccccc3n12)Nc1ccccc1F`, the activity change, negative = inhibition in assay [1] is 0.764%; in assay [2] it was 0%; in assay [3] it was 4.35%; in assay [4], -1.71%; in assay [5] it was 2.98%.

With `CC(C)OC(=O)C(C)Oc1ccc2c(-c3ccccc3)cc(=O)oc2c1` (stereo not given), the activity change, negative = inhibition in assay [1] is -5.71%; in assay [2], 3.28%; in assay [3], -3.95%; in assay [4] it was -7.45%; in assay [5], -7.78%.

For `O=C(O)CCc1ccc(NCc2cccc(Oc3ccccc3)c2)cc1`, the activity change, negative = inhibition in assay [1] is -20.9% and -11.9%; in assay [2], -2.87% and -6.87%; in assay [3], -3.64% and 3.78%; in assay [4], -16.1% and -22.7%; in assay [5], -8.6% and -15%.

As for `C[C@@H]1CC2OC(=O)C3=C2C(CCC3O)[C@@]12C[C@@H](c1ccoc1)OC2=O` (stereo not given in full), the activity change, negative = inhibition in assay [1] was -0.74%; in assay [2] it was 3.78%; in assay [3], 5.6%; in assay [4], -9.84%; in assay [5] it was 6.19%.

Regarding `CC(=O)Nc1c2n(c3ccccc13)CC(C)(C(=O)NC1CCCC1)N(Cc1ccccc1Cl)C2=O` (stereo not given), the activity change, negative = inhibition in assay [1] was -6.01%; in assay [2], 0.085%; in assay [3] it was -7.52%; in assay [4], -1.89%; in assay [5], 0.638%.

Consider `O=C1NCC2(CCN(CCc3ccccc3)CC2)O1`, for which the activity change, negative = inhibition was 6.81% in assay [1]; 14% in assay [2]; 5.27% in assay [3]; -4.03% in assay [4]; 4.42% in assay [5].

Regarding `O=c1c2ccccc2n2c(-c3cc(Br)cs3)nnc2n1Cc1ccc(F)cc1`, the activity change, negative = inhibition in assay [1] came to 2.63%; in assay [2] it was 0.185%; in assay [3], 5.63%; in assay [4], 3.77%; in assay [5], 1.53%.

With `COc1ccc(NC(=O)Cn2nc3n(CCCOC(C)C)c(=O)c4ccccc4n3c2=O)cc1`, the activity change, negative = inhibition in assay [1] was -2.04%; in assay [2], 6.24%; in assay [3] it was 2.51%; in assay [4], -5.38%; in assay [5] it was 0.019%.

Take `COc1ccc(CN2C(=O)C(=O)c3cc(S(=O)(=O)N4CCC[C@H]4COc4cccnc4)ccc32)cc1`: the activity change, negative = inhibition is 7.38% in assay [1]; 9.77% in assay [2]; 6.63% in assay [3]; -3.28% in assay [4]; 3.41% in assay [5].

In the case of `O=C(CCn1ccc2cc(S(=O)(=O)N3CCCCC3)ccc21)N1CCOCC1`, the activity change, negative = inhibition in assay [1] is 1.39%; in assay [2], 4.8%; in assay [3] it was -4.14%; in assay [4], 2.61%; in assay [5], -0.181%.

For the compound `CCCN1C(=O)c2c(C(=O)Nc3ccccc3CC)ncn2CC1(C)C(=O)NC1CCCC1` (stereo not given), the activity change, negative = inhibition turned out to be 1.4% in assay [1]; 1.74% in assay [2]; 5.71% in assay [3]; 9.87% in assay [4]; 9.22% in assay [5].

Take `CCOc1ccc(CCNC(=O)CCCn2ccc3cc(S(=O)(=O)N4CCCC4)ccc32)cc1`: the activity change, negative = inhibition in assay [1] was 2.58%; in assay [2], 1.27%; in assay [3], 4.51%; in assay [4], -0.682%; in assay [5], 1.39%.

As for `CCC(C)NC(=O)c1ccc2c(=O)n(CCC(C)C)c3nn(CC(=O)c4ccccc4)c(=O)n3c2c1` (stereo not given), the activity change, negative = inhibition in assay [1] was -2.57%; in assay [2], -1.86%; in assay [3], 1.62%; in assay [4] it was -6.8%; in assay [5] it was -4.45%.

With `C=CCNC(=O)N[C@H]1CO[C@H]2[C@@H]1OC[C@@H]2Nc1nccc(-c2cccc(F)c2)n1`, the activity change, negative = inhibition in assay [1] was -21.4%; in assay [2], 0.2%; in assay [3], -1.5%; in assay [4], -4.04%; in assay [5] it was 1.13%.

Turning to `CC1(C(=O)NC2CCCCCCC2)Cn2c(cc3sccc32)C(=O)N1CC1CCCO1` (stereo not given), the activity change, negative = inhibition in assay [1] was 3.59%; in assay [2], -1.6%; in assay [3] it was 7.52%; in assay [4], 4.46%; in assay [5], 2.34%.

`Cc1nn2c(c1-c1ccnn1C(C)C)N(Cc1ccc3c(c1)CCO3)CCC2`: the activity change, negative = inhibition in assay [1] is -3.38%; in assay [2], 1.93%; in assay [3] it was -0.157%; in assay [4] it was -25.7%; in assay [5], 0.416%.

As to `CCC1c2ccc(C)n2CCN1C(=O)Nc1ccc(OC)cc1OC` (stereo not given), the activity change, negative = inhibition in assay [1] was -0.769%; in assay [2] it was 0%; in assay [3], -1.6%; in assay [4], 6.58%; in assay [5], 3.48%.

`Cc1cc(-c2nn(-c3ccccc3F)cc2CN(C)C(C)c2ccon2)c(C)s1` (stereo not given): the activity change, negative = inhibition in assay [1] was -2.29%; in assay [2] it was -0.105%; in assay [3] it was 0.968%; in assay [4], -5.56%; in assay [5], -2.36%.

Take `CC1CCCCN1CCN1C(=O)c2ccc(-c3ccco3)n2CC1(C)C(=O)NC1CCCCCCC1` (stereo not given): the activity change, negative = inhibition in assay [1] was -0.239%; in assay [2] it was 4.96%; in assay [3] it was -0.481%; in assay [4], -9.48%; in assay [5], -1.56%.

`COc1ccccc1-c1nnc2n(Cc3ccc(F)cc3)c(=O)c3ccccc3n12`: the activity change, negative = inhibition was -1.03% in assay [1]; 0.34% in assay [2]; 3.5% in assay [3]; 0.097% in assay [4]; 2.89% in assay [5].

With `Cn1cc(CN2CCN3C(=O)N(C4CCCCC4)C[C@H]3C2)cn1`, the activity change, negative = inhibition was -1.92% in assay [1]; -2.85% in assay [2]; -1.58% in assay [3]; -2.4% in assay [4]; -6.33% in assay [5].

With `CSc1ccc(CCNC(=O)Cn2ccc3cc(S(=O)(=O)N4CCCCC4)ccc32)cc1`, the activity change, negative = inhibition in assay [1] was -7.12%; in assay [2], -4.66%; in assay [3], -3.07%; in assay [4], -11.1%; in assay [5], -7.46%.

For the compound `O=C(NC1(c2ccccc2)CC1)c1c(CN2CCC(N3CCCCC3)CC2)c(-c2cccc(C(F)(F)F)c2)nc2cc(Br)ccc12`, the activity change, negative = inhibition in assay [1] was 0.275%; in assay [2], -12.9%; in assay [3], -16.6%; in assay [4] it was -34.5%; in assay [5], -22.3%.

On to `CC1CCN(S(=O)(=O)c2ccc3c(ccn3CCC(=O)NC(C)c3ccccc3)c2)CC1` (stereo not given), for which the activity change, negative = inhibition in assay [1] is 3.64%; in assay [2], 0%; in assay [3], 0.349%; in assay [4], 1.26%; in assay [5] it was -1.48%.
